Reference: the supplement of paper PMC6746778
Some of the results follow. Many values rest on one well or one pass, so single values are uncertain.

Experiments:
Experiment in all cases: proliferation Z-score within cell line (SRB, relative to all inhibitors screened on that line); triple-negative breast cancer lines and a kinase inhibitor library; SRB is the sulforhodamine B protein stain; higher = less growth inhibition (more resistant)
Settings in all cases: concentration: 1 µM; 4 days
Bt20 = tested on: Bt20
Bt549 = tested on: Bt549
HCC1143 = tested on: HCC1143
HCC1806 = tested on: HCC1806
HCC1937 = tested on: HCC1937
HCC38 = tested on: HCC38
HCC70 = tested on: HCC70
Hs578T = tested on: Hs578T
MDA-MB-231 = tested on: MDA-MB-231
MDA-MB-435s = tested on: MDA-MB-435s
MDA-MB-436 = tested on: MDA-MB-436
MDA-MB-453 = tested on: MDA-MB-453
MDA-MB-468 = tested on: MDA-MB-468
SKBR7 = tested on: SKBR7
SUM1315MO2 = tested on: SUM1315MO2
SUM149PT = tested on: SUM149PT
SUM159PT = tested on: SUM159PT
SUM185PE = tested on: SUM185PE
SUM229PE = tested on: SUM229PE
SUM52PE = tested on: SUM52PE
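Further: Single-dose primary screen of a 378-member kinase inhibitor library in 96-well plates, with growth read as absorbance of protein-bound SRB dye after TCA fixation.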

Structure (SMILES) | proliferation Z-score within cell line (Bt20) | proliferation Z-score within cell line (Bt549) | proliferation Z-score within cell line (HCC1143) | proliferation Z-score within cell line (HCC1806) | proliferation Z-score within cell line (HCC1937) | proliferation Z-score within cell line (HCC38) | proliferation Z-score within cell line (HCC70) | proliferation Z-score within cell line (Hs578T) | proliferation Z-score within cell line (MDA-MB-231) | proliferation Z-score within cell line (MDA-MB-435s) | proliferation Z-score within cell line (MDA-MB-436) | proliferation Z-score within cell line (MDA-MB-453) | proliferation Z-score within cell line (MDA-MB-468) | proliferation Z-score within cell line (SKBR7) | proliferation Z-score within cell line (SUM1315MO2) | proliferation Z-score within cell line (SUM149PT) | proliferation Z-score within cell line (SUM159PT) | proliferation Z-score within cell line (SUM185PE) | proliferation Z-score within cell line (SUM229PE) | proliferation Z-score within cell line (SUM52PE)
CN(C(Cc1ccc(OS(=O)(=O)c2cccc3cnccc23)cc1)C(=O)N1CCN(c2ccccc2)CC1)S(=O)(=O)c1cccc2cnccc12 (stereo not given) | 0.783 | 0.562 | 0.821 | 0.633 | 0.49 | 0.446 | 0.657 | 0.397 | 0.695 | 0.797 | 1.32 | 0.82 | 0.566 | 0.332 | 0.441 | 0.12 | 0.451 | 0.981 | 0.979 | 1.02
O=C(/C=C/c1ccc2ccccc2n1)c1ccncc1 | 0.432 | 0.444 | 0.71 | 0.645 | 0.435 | 0.533 | 0.414 | 0.572 | 0.516 | 0.748 | 0.22 | 0.097 | 0.534 | 0.146 | 0.414 | 0.802 | 0.484 | 0.259 | 0.737 | 0.911
O=Nc1c(-c2c(O)[nH]c3cc(Br)ccc23)[nH]c2ccccc12 | 1.09 | 0.784 | 0.498 | 0.898 | 0.875 | 0.443 | 0.642 | 0.516 | 0.363 | 0.537 | 1.18 | 0.545 | 0.37 | 0.829 | 0.49 | 0.455 | 0.322 | 0.717 | 1.71 | 0.558
Cc1cc(F)c(Nc2ncnc3cc(OCc4ccccc4)ccc23)cc1O | 0.4 | 0.436 | 0.55 | 0.542 | 0.597 | 0.419 | 0.586 | 0.399 | 0.444 | 0.654 | 0.413 | 0.695 | 0.309 | 0.175 | 0.288 | 0.143 | 0.412 | 0.325 | 0.258 | 0.412
Nc1ncnc2c1c(-c1cccc(OCc3ccccc3)c1)cn2C1CC(CN2CCCC2)C1 (stereo not given) | 1.05 | 0.524 | -2.15 | 0.329 | -2.74 | 0.487 | -1.99 | 0.78 | 0.191 | 0.163 | -2.5 | 0.986 | 1.08 | -0.0353 | 1.23 | -0.0125 | -2.82 | 1.34 | -0.52 | 1.36
COc1cc2nccc(Oc3ccc(NC(=O)NC4CC4)c(Cl)c3)c2cc1C(N)=O [Lenvatinib (E7080)] | -0.195 | 0.542 | -1.16 | 0.506 | -0.0401 | 0.337 | -1.22 | 0.417 | 0.58 | 0.509 | -0.975 | -0.0675 | 0.466 | 0.613 | -1.34 | -0.328 | -1.94 | -1.29 | 0.179 | -1.38
O=C(Nc1cc(C(F)(F)F)cc(C(F)(F)F)c1)c1cc(Cl)ccc1O | -1.51 | -1.64 | -1.58 | -1.06 | -2.23 | -2.1 | -1.66 | -1.28 | -1.24 | -1.41 | -1.35 | -1.38 | -1.3 | -1.74 | -1.19 | -1.37 | -1.83 | -0.83 | -1.18 | -1.04
Cc1[nH]nc2ccc(-c3cncc(OC[C@@H](N)Cc4ccccc4)c3)cc12 | -1.23 | -1.4 | -0.827 | -0.718 | -1.42 | -0.517 | -1.39 | -0.331 | -1.19 | -0.82 | -1.58 | -0.898 | -1.48 | -1.31 | -0.121 | -0.747 | -0.593 | -0.435 | -0.434 | -0.382
O=C(O)c1ccc(Nc2ncc3c(n2)-c2ccc(Cl)cc2C(c2c(F)cccc2F)=NC3)cc1 | -1.63 | -0.653 | 0.878 | -0.842 | 0.717 | -0.701 | 0.507 | -0.789 | -0.0765 | -0.62 | 0.816 | -1.58 | -1.5 | -0.921 | -0.715 | -0.186 | 0.148 | -0.258 | -0.288 | -0.762
C[C@@H]1CN(CC(=O)Nc2ccc3c(c2)Cc2cccc(-c4cc(=O)cc(N5CCOCC5)o4)c2S3)C[C@H](C)O1 | 0.98 | 0.793 | 0.703 | 0.68 | 0.641 | 0.577 | 0.535 | 0.616 | -0.116 | 0.567 | 0.565 | 0.868 | 0.751 | 1.13 | 1.24 | 0.887 | 0.461 | 0.927 | 0.615 | 0.923
Cc1ccc(Nc2nccc(N(C)c3ccc4c(C)n(C)nc4c3)n2)cc1S(N)(=O)=O | -0.206 | 0.545 | 0.887 | 0.933 | 0.915 | 0.595 | 0.907 | 0.556 | 0.218 | 0.697 | 0.877 | 1.15 | 0.219 | 0.964 | -1.27 | 0.263 | 0.61 | -0.952 | 0.98 | -1.4
CN1CCN(c2ccc3nc(-c4c(N)c5c(F)cccc5[nH]c4=O)[nH]c3c2)CC1 [Dovitinib (TKI-258, CHIR-258)] | 0.314 | 0.29 | -0.0759 | 0.113 | 0.73 | 0.376 | 0.262 | 0.463 | -0.164 | -0.833 | 0.173 | 0.917 | -0.0902 | -0.0891 | -1.7 | -0.462 | 0.35 | -1.49 | 0.0539 | -1.34
